According to the RNAGym collection of RNA variant scans (doi:10.7554/elife.90254):
Read counts are not given, so values of variants with three or more changes are uncertain.

B1: LINE1-full (parent)
chain: UACGUAGGUGGUUUUCCCCUGAUAGUGCUAAGGGGGCCUGGAAGUUUGGACUGGGCAGAGCUCAACACAGCGUGGCAAAGUGGCUGUGGCUAGACUGCCUCUCUGGAUUCCUCGUCACUCAGCAGGGCAUCUCUGAGAGAAAUGCC

Variants of: B1
Test: self-cleavage, relative activity (ratio to wild type); higher = more cleavage; in vitro, sequencing; the parent is a self-cleaving ribozyme

| Variant | self-cleavage |
| --- | --- |
| U52C A67G A129U | 0.32 |
| G53A A57U A79G | 0.09 |
| U47C U52C A107G | 0 |
| C51U A57G A77G | 0.76 |
| U52C G75A U85A U132C | 0.04 |
| C51U A107G U134A U143A | 0.86 |
| U47C U62A G88C | 0 |
| U52C A117U U132G A138G | 0.51 |
| A50U U100C A107G A124G | 0 |
| U52C U108C U143C | 2.04 |
| A50G U52C A67U | 0.14 |
| A50G G125U U143G | 1.21 |
| A50U A69G A138G | 1.15 |
| U52A G53U A142G | 1.29 |
| G48U U87A U96C A107G | 0.07 |
| U52C A64G U102C | 0.23 |
| U52C U115A A121G | 0.28 |
| U47G U85C G89A A124G | 0.16 |
| U52C C63U U119C A141G | 0.27 |
| U52A A67U A77C U132C | 0.07 |
| A50U A117C G127U A138G | 1.57 |
| G48U A77G A94U A138G | 0.32 |
| U47C U62C G127A | 0.09 |
| U52A A77U U132C A138G | 2.09 |

| Variant | self-cleavage |
| --- | --- |
| C51U A69G U100C A138G | 0 |
| A50U U85C U134C | 0.12 |
| U52A U91C U115A | 0.78 |
| A50G A65U G72U U132A | 0.16 |
| U52A A78G A141G | 2.02 |
| A50G A92G U132C | 0 |
| U52C A92U U112C | 1.13 |
| A50U A64G A94U A107G A142G | 0.13 |
| C51U U52C A64U | 0.54 |
| U47C U73C U134A | 1.02 |
| U52A U104C U143C | 2.13 |
| A50U G74A G82U U102C | 0.87 |
| A50G U73A U81C C113U | 0.21 |
| G49A A92U U109A | 0.33 |
| U52A U96C U102C A129G A142G | 0.71 |
| A50G U104C C116U | 0.6 |
| U47C U73A U96A | 0.13 |
| A50G A78G A117G | 1.15 |
| G49A U62C U112C | 0.06 |
| A50G A94G U109A A138G | 0.44 |
| U52A C56U A94G U115C | 0.07 |
| U47C U81C G135A | 2.12 |
| C51A C56U A129U | 0.42 |
| A50G U62C A141G U143C | 0.34 |

| Variant | self-cleavage |
| --- | --- |
| U47C G48A A107U | 1.82 |
| A50G U119C A138G | 0.61 |
| C51A U85C C131U | 0.17 |
| A50G U96C U119C | 0 |
| U47C G54U U134C | 1.84 |
| A50U A65G A67U A140G | 0 |
| U52C G58A U73C U85A A117U | 0.02 |
| A50G U108A U109C | 1.84 |
| U52C A57U A77G | 0 |
| U47C G72A A79U G125U | 1.98 |
| A50G G127A A140G U143G | 0.33 |
| A50U G53A A77U | 0.35 |
| U52A A117G A141G | 1.74 |
| G49U U112A A121G | 0.31 |
| A50G G89A G114A | 0.04 |
| U47C U85C U130C | 0.67 |
| A50G A94G A124U | 0 |
| U52C A69G A77G C103A A136U | 1.02 |
| A50G U73C G126U U134A | 1.57 |
| A50G A67U G80A G86A U115A G139A | 0.02 |
| U47C G54A U62G | 0.1 |
| U52A A57G U109C | 0.3 |
| A50G A77U A79U G83A U134C | 0.37 |
| G48U A69G U85C | 1.1 |

| Variant | self-cleavage |
| --- | --- |
| A50G A79G U143G | 0.78 |
| A50U A57G A117G | 0.18 |
| U52C A57G U109A | 0.3 |
| C51U A57C A141G | 0.01 |
| U47G A92G A121U | 0.18 |
| A50G C56U U109C | 0.08 |
| U47G U62C A121G | 0 |
| G53A G58A A129G A140G | 0.02 |
| U47G A64G C98A | 0.06 |
| U52C U134A A140G | 0.47 |
| G48A G126A A141G | 1.48 |
| U47C U143C C145A | 2.02 |
| U52C A78G U81A U132C | 0.28 |
| U47C U62C U102C | 0 |
| U52C U85C A129G | 0 |
| U47C C128U A140G | 1.3 |
| U52C G97A U112A | 0.05 |
| U52C A77U U115C | 2.04 |
| G53A U87C U108C U130A | 0 |
| U47G U81A A138G | 1.64 |
| U52C G80A U96C U115C | 0.11 |
| U52A U104G G106A A129G U130C | 2.74 |
| A50G G60A A79G A136G | 0 |
| A50G U130C A142U | 1.17 |

| Variant | self-cleavage |
| --- | --- |
| A50G U130C A142G | 1.92 |
| G48A A107C U134C | 1.61 |
| U52A U73C G75U A77G | 0.43 |
| U52C U85A C90U A136G | 0.07 |
| U47C G72A A92G A141U | 0.06 |
| U47C G82A U119C A142U | 2.53 |
| C51U A65G U104A | 0.06 |
| U52C G74A U85C C113A A136G | 0.03 |
| G53A C84U A121G | 0.13 |
| G53A A69G U132C A138G | 0.64 |
| U52A A77U G122A | 1.05 |
| A50G G54A A57G U112C A124U | 0 |
| G48C U96A A124G A142G | 0.06 |
| A50G C90A A140G | 0.02 |
| A50G A78G A124G | 0.59 |
| U47C U62C U115C | 0.21 |
| U52C U73G G74U A129G A140G | 1.62 |
| A50U A107G C145G | 0.93 |
| A50G C98U U112A U119C A140G | 0.45 |
| G49A U81C U130C A140U | 1.68 |
| A50G U81A U102C U112C | 2.66 |
| U52C A79G C95U U109C | 0.05 |
| U52A U91A A92G | 0.23 |
| U47C U73A U104C A121G | 1.67 |

| Variant | self-cleavage |
| --- | --- |
| U52A A77G C116U | 1.39 |
| A50U U62C U115G | 0 |
| A50U U91C C146U | 0.41 |
| U52C A64C A142G | 0.61 |
| C51U U85C A117U U130C | 0.26 |
| A50C A67G U115C G122A | 0.36 |
| U52A A65G U100C U112C A141G | 0 |
| G49A U62C U119C | 0.06 |
| U47C C131A A140G | 1.7 |
| U47C G49U U102C | 0.7 |
| U52C A117G A121U | 1.15 |
| G53A A67U A78G | 0.04 |
| U47C U104A A124G U143A | 0.44 |
| A50G C111U U115C | 1.43 |
| A50U U87C C90U | 0.05 |
| A50U A78G C113U | 0.59 |
| U52C A67G U134C | 0.5 |
| U52A A69G U81A U104A | 0.44 |
| U52C U96A U119C A142G | 0.12 |
| U52A A64U U87A | 0.05 |
| U47G A78G A117C A141G | 1.41 |
| C51U U62C U109C | 0.25 |
| C51G C99U A138U | 1.43 |
| G48A A57G A140G | 0.48 |

| Variant | self-cleavage |
| --- | --- |
| A50G A92G U104A A136U | 0 |
| U52C A136U A140U | 1.16 |
| U52A A64G A77G | 0.46 |
| U47C U91A A124G | 0.86 |
| U52C A94G G114C A121U | 0.29 |
| U52C G53A A59G A64G A129G U134A A136U | 0.77 |
| G48A A77U A121U | 1.04 |
| G48A A59G U104C | 0.06 |
| A50G A57G A77G | 0 |
| C51U U52C A65U | 0.23 |
| A50G C128U A129G U143C | 1.15 |
| U47C U91A A129G | 0.74 |
| C51U U115C A117U | 1.3 |
| G49A A64U A69G | 0.04 |
| U47C C133A U143A | 1.21 |
| A50G U96G A121G | 0 |
| U52C U87A U102C A142G | 0.08 |
| U52A A57G A67G G83A U115C A142G | 0.33 |
| U47C G49C A121U | 1.38 |
| C51U C61A A67C U100C | 0.12 |
| U52G A121U U132C A138G | 1.13 |
| U52C A79U U104A A141G | 2.43 |
| U52C U96A U115C | 0.1 |
